According to a compilation of properties of binary mixtures (doi:10.1016/j.molliq.2021.117187):
Some of these densities may be calculated back from excess volumes.

Assay: xn = mol fraction of the nth substance listed
Details: 100 kPa

CCCC[n+]1ccn(C)c1.F[B-](F)(F)F + CCOC(C)=O
mass density [kg/m3]
Details | x1 = 0.1014 | x1 = 0.2013 | x1 = 0.3012 | x1 = 0.3885 | x1 = 0.4936 | x1 = 0.5911 | x1 = 0.6978 | x1 = 0.7997 | x1 = 0.8998
298.15 K | 951.5 | 999.6 | 1041.3 | 1072.7 | – | 1130.2 | 1153.2 | – | 1186.2
303.15 K | 945.8 | – | 1036.4 | 1068 | 1100.5 | 1126 | 1149.2 | 1167.7 | 1182.7
308.15 K | 940.3 | 989.4 | 1031.6 | 1063.4 | 1096.1 | – | – | 1164.1 | 1179.3
313.15 K | 934.9 | – | 1026.8 | 1058.7 | 1091.7 | 1117.6 | 1141.6 | 1160.6 | 1175.9
318.15 K | 929.4 | 979.4 | 1022 | 1054.1 | 1087.3 | – | 1137.8 | 1157.1 | 1172.6
323.15 K | 923.9 | 974.3 | 1017.1 | 1049.4 | 1082.9 | 1109.4 | 1134 | 1153.7 | 1169.3
